Source: the supplement of paper PMC4604168 (melanoma cell lines)
This is one part of the list. Most values come without repeats; read them as rough.

Legend:
Assay in all cases: cell count relative to DMSO control; melanoma cells; higher = more viable cells
Conditions in all cases: library dose: standard library concentration; 72 h
G361 = tested on: G361
IPC-298 = tested on: IPC-298
IST-MEL1 = tested on: IST-MEL1
LB2518-MEL = tested on: LB2518-MEL
LOXIMVI = tested on: LOXIMVI
MEL-HO = tested on: MEL-HO
MZ2-MEL = tested on: MZ2-MEL
MeWo = tested on: MeWo
RPMI7951 = tested on: RPMI7951
RVH-421 = tested on: RVH-421
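Note: cells treated in 1,536-well plates, then fixed and DAPI-stained, with nuclei counted from automated high-throughput microscope images.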

SMILES	cell count (G361)	cell count (IPC-298)	cell count (IST-MEL1)	cell count (LB2518-MEL)	cell count (LOXIMVI)	cell count (MEL-HO)	cell count (MZ2-MEL)	cell count (MeWo)	cell count (RPMI7951)	cell count (RVH-421)
COc1cc([C@@H]2c3cc4c(cc3[C@@H](O[C@@H]3O[C@@H]5CO[C@@H](C)O[C@H]5[C@H](O)[C@H]3O)[C@H]3COC(=O)[C@H]23)OCO4)cc(OC)c1O [etoposide] + O=c1[nH]nc(Sc2ncc([N+](=O)[O-])s2)n1-c1ccc2c(c1)OCCO2 [BI78D3] (first compound 0.1 µM, partner dose 1 µM)	107%	66.4%	101%	85.2%	94.1%	95.5%	75.3%	80.2%	79.6%	93.5%
C[C@]1(O)C[C@@H](c2nc(-c3ccc4ccc(-c5ccccc5)nc4c3)c3c(N)nccn32)C1 + CO[C@H]1C[C@@H]2CC[C@@H](C)[C@@](O)(O2)C(=O)C(=O)N2CCCC[C@H]2C(=O)O[C@H]([C@H](C)C[C@@H]2CC[C@@H](OCCO)[C@H](OC)C2)CC(=O)[C@H](C)/C=C(\C)[C@@H](O)[C@@H](OC)C(=O)[C@H](C)C[C@H](C)/C=C/C=C/C=C/1C [everolimus] (first compound 2 µM, partner dose 0.1 µM)	41.8%	49.5%	65.6%	43.5%	74.4%	60.5%	52%	48.4%	51.3%	104%
COc1cc([C@@H]2c3cc4c(cc3[C@@H](O[C@@H]3O[C@@H]5CO[C@@H](C)O[C@H]5[C@H](O)[C@H]3O)[C@H]3COC(=O)[C@H]23)OCO4)cc(OC)c1O [etoposide] + COc1ccc(COc2ccc(Cc3cnc(N)nc3N)cc2OC)cc1 [GW2580] (first compound 0.1 µM, partner dose 5 µM)	81.6%	72.7%	94.8%	71.5%	95.5%	89.8%	77.4%	93.3%	107%	87.5%
Cn1cnc2c(F)c(Nc3ccc(Br)cc3Cl)c(C(=O)NOCCO)cc21 [selumetinib] + COc1ccc(Cl)c(Nc2nc3ccccc3nc2NS(=O)(=O)c2cccc(NC(=O)C(C)(C)N)c2)c1 [XL147] (first compound 0.075 µM, partner dose 4 µM)	62.7%	48.3%	70.7%	38.2%	110%	68.5%	58.4%	61.5%	118%	87%
C[C@]1(O)C[C@@H](c2nc(-c3ccc4ccc(-c5ccccc5)nc4c3)c3c(N)nccn32)C1 + CC(=O)O[C@@]12CO[C@@H]1C[C@H](O)[C@@]1(C)C(=O)[C@H](O)C3=C(C)[C@@H](OC(=O)[C@H](O)[C@@H](NC(=O)OC(C)(C)C)c4ccccc4)C[C@@](O)([C@@H](OC(=O)c4ccccc4)[C@H]21)C3(C)C [Docetaxel] (first compound 2 µM, partner dose 0.0005 µM)	10.9%	40.8%	39%	23.5%	65.4%	45.4%	36.7%	22%	27.2%	46.6%
C[C@]1(O)C[C@@H](c2nc(-c3ccc4ccc(-c5ccccc5)nc4c3)c3c(N)nccn32)C1 + OCc1c[nH]c2ccccc12 [Indole-3-carbinol] (first compound 2 µM, partner dose 4 µM)	92.9%	92.8%	97.8%	88.7%	89.7%	90.6%	75.4%	70.1%	85.1%	93.6%
COc1cc([C@@H]2c3cc4c(cc3[C@@H](O[C@@H]3O[C@@H]5CO[C@@H](C)O[C@H]5[C@H](O)[C@H]3O)[C@H]3COC(=O)[C@H]23)OCO4)cc(OC)c1O [etoposide] + CC1(C)NC(=O)N(c2ccc([N+](=O)[O-])c(C(F)(F)F)c2)C1=O [nilutamide] (first compound 0.1 µM, partner dose 5 µM)	90.3%	91.2%	90.5%	93.2%	97.8%	95.9%	94.4%	83.2%	104%	78.8%
C[C@]1(O)C[C@@H](c2nc(-c3ccc4ccc(-c5ccccc5)nc4c3)c3c(N)nccn32)C1 + CS(=O)(=O)CCNCc1ccc(-c2ccc3ncnc(Nc4ccc(OCc5cccc(F)c5)c(Cl)c4)c3c2)o1 [lapatinib] (first compound 2 µM, partner dose 4 µM)	50.5%	80.2%	78.7%	79.4%	70.7%	74.9%	26.1%	55.5%	60.5%	109%
C[C@]1(O)C[C@@H](c2nc(-c3ccc4ccc(-c5ccccc5)nc4c3)c3c(N)nccn32)C1 + Cc1cc(Nc2cc(N3CCN(C)CC3)nc(/C=C/c3ccccc3)n2)n[nH]1 [ENMD2076] (first compound 2 µM, partner dose 0.2 µM)	75%	88.5%	87.5%	68.8%	95.7%	83.9%	83.2%	78.5%	61.1%	110%
Cn1cnc2c(F)c(Nc3ccc(Br)cc3Cl)c(C(=O)NOCCO)cc21 [selumetinib] + CC(C)C[C@H](NC(=O)[C@H](Cc1ccccc1)NC(=O)c1cnccn1)B(O)O [Bortezomib] (first compound 0.075 µM, partner dose 0.005 µM)	0.733%	8.18%	10.5%	1.44%	21.9%	16.1%	4.69%	13.3%	5.54%	0.846%
C[C@]1(O)C[C@@H](c2nc(-c3ccc4ccc(-c5ccccc5)nc4c3)c3c(N)nccn32)C1 + CCCS(=O)(=O)Nc1ccc(F)c(C(=O)c2c[nH]c3ncc(Cl)cc23)c1F [PLX4720] (first compound 2 µM, partner dose 0.4 µM)	46.3%	70.1%	4.48%	84.5%	63.4%	70.7%	64.1%	83.3%	102%	75.4%
C[C@]1(O)C[C@@H](c2nc(-c3ccc4ccc(-c5ccccc5)nc4c3)c3c(N)nccn32)C1 + COCC[n+]1c2c(n(Cc3cnccn3)c1C)C(=O)c1ccccc1C2=O [YM155] (first compound 2 µM, partner dose 0.002 µM)	72.6%	32.7%	45%	29.4%	88.7%	75.5%	22.6%	34.1%	38.7%	87.4%
COc1cc([C@@H]2c3cc4c(cc3[C@@H](O[C@@H]3O[C@@H]5CO[C@@H](C)O[C@H]5[C@H](O)[C@H]3O)[C@H]3COC(=O)[C@H]23)OCO4)cc(OC)c1O [etoposide] + O=C(Nc1ccccc1)c1cc([N+](=O)[O-])ccc1Cl [GW9662] (first compound 0.1 µM, partner dose 10 µM)	66.5%	84.1%	92.7%	65.4%	63.9%	78.5%	62.8%	75%	69%	86.4%
COc1cc([C@@H]2c3cc4c(cc3[C@@H](O[C@@H]3O[C@@H]5CO[C@@H](C)O[C@H]5[C@H](O)[C@H]3O)[C@H]3COC(=O)[C@H]23)OCO4)cc(OC)c1O [etoposide] + CC(=O)c1c(C)c2cnc(Nc3ccc(N4CCNCC4)cn3)nc2n(C2CCCC2)c1=O [palbociclib] (first compound 0.1 µM, partner dose 0.2 µM)	63.1%	54.5%	66.1%	57.2%	42.7%	58.5%	52%	65.9%	61.5%	52%
COc1cc([C@@H]2c3cc4c(cc3[C@@H](O[C@@H]3O[C@@H]5CO[C@@H](C)O[C@H]5[C@H](O)[C@H]3O)[C@H]3COC(=O)[C@H]23)OCO4)cc(OC)c1O [etoposide] + OCCn1cc(-c2cnc3nnn(Cc4ccc5ncccc5c4)c3n2)cn1 [PF04217903] (first compound 0.1 µM, partner dose 5 µM)	94.3%	88.7%	248%	85.1%	79.7%	109%	95.8%	88.5%	89.7%	66%
CCN(CC)CCNC(=O)c1c(C)[nH]c(/C=C2\C(=O)Nc3ccc(F)cc32)c1C [sunitinib] + NCC(=O)Nc1ccc(-n2nc(C(F)(F)F)cc2-c2ccc3c(ccc4ccccc43)c2)cc1 [OSU03012] (first compound 2 µM, partner dose 5 µM)	35%	59.4%	85.3%	63.4%	74.8%	83.2%	95.9%	56.9%	51.6%	93.3%
CCN(CC)CCNC(=O)c1c(C)[nH]c(/C=C2\C(=O)Nc3ccc(F)cc32)c1C [sunitinib] + COc1ccc2c(c1)CCC1C2CCC2(C)C(NCCCCCCN3C(=O)C=CC3=O)CCC12 [U73122] (first compound 2 µM, partner dose 2 µM)	43%	81.4%	94.6%	64.4%	54.2%	82.1%	84.4%	25.5%	14.1%	110%
Cn1cnc2c(F)c(Nc3ccc(Br)cc3Cl)c(C(=O)NOCCO)cc21 [selumetinib] + COc1ccc(-c2ccc3c(N4CCOCC4)nc(N4C[C@@H](C)O[C@@H](C)C4)nc3n2)cc1CO [KU0063794] (first compound 0.075 µM, partner dose 0.1 µM)	46.3%	58.3%	70.6%	46.9%	120%	80.1%	84%	65.4%	126%	62.8%
C[C@]1(O)C[C@@H](c2nc(-c3ccc4ccc(-c5ccccc5)nc4c3)c3c(N)nccn32)C1 + CN(C)S(=O)(=O)c1ccc2c(c1)/C(=C/c1cc3c([nH]1)CCCC3)C(=O)N2 [SU6656] (first compound 2 µM, partner dose 2 µM)	66.6%	77.4%	72.5%	64.7%	103%	72.7%	87.5%	66.3%	36%	80.3%
